Test results taken from PubChem BioAssay AID651820 (National Center for Advancing Translational Sciences (NCATS), 2012).
About 12,000 (3.5%) of roughly 340,000 compounds were called active. This list was built around the results that the source calls inconclusive (neither active nor inactive); the mix of calls is not that of the screen. Calls follow the shape of the dose curve; as a rule, active = well fitted inhibition curve with a large enough effect; inconclusive = small, poorly fitted or top-dose-only effect, or another doubt; inactive = no such curve, though single readings can be large or run the other way. Potencies of inconclusive entries are left out as doubtful fits. A structure can be active in one record and inactive in another.

Assay: qHTS Assay for Inhibitors of Hepatitis C Virus (HCV)
Settings: Huh7.5.1 HCVcc-Cre (HCVcc is cell-culture hepatitis C virus) infection, luciferase reporter, 44 h; activity change, negative = inhibition: at 41.8 µM (top of the series) unless noted
How it was run: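 Cells (1,000/well) were plated 4 h before compound, then infected with HCVcc-Cre virus (~0.5 moi). After 44 h further culture, infection was read as luciferase luminescence following a 15 min substrate incubation at room temperature.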
% is scaled to controls: 0 for no effect and ±100 for the full control effect; potency is read from the fitted curve at half-maximal effect; tags tell the direction and shape of the fitted curve.

Row | SMILES | activity change, negative = inhibition | Potency
1 | CCC(C)NC(=O)c1oc2ccc(S(=O)(=O)N3CCC4(CC3)OCCO4)cc2c1C (stereo not given) | inactive: -8.58% | 
2 | CC(C)(C)c1ccc(C2C3=C(CCCC3=O)NC3=C2C(=O)c2ccccc23)cc1 (stereo not given) |  | inconclusive [inhibitor, partial curve]
3 | CCN1CCN(c2cc(C)c3cc(NC(=O)Cc4ccccc4OC)ccc3n2)CC1 |  | inconclusive [inhibitor, full curve]
4 | COc1cc(C(=O)/C=C/Nc2ccc(NC(C)=O)cc2)cc(OC)c1OC |  | inconclusive [inhibitor, single point]
5 | Cc1oc(-c2nc3ccccc3n2C)cc1C(=O)c1ccccc1 | inactive: -3.96% | 
6 | O=C(NC1CCS(=O)(=O)C1)c1c(NC(=O)C2COc3ccccc3O2)sc2c1CCCC2 (stereo not given) |  | inconclusive [inhibitor, partial curve, poor fit]
7 | Cc1cc(NC(=O)c2cc(Cl)ccc2Cl)no1 |  | inconclusive [inhibitor, full curve]
8 | O=[N+]([O-])c1ccc2nc(CCCc3nc4ccc([N+](=O)[O-])cc4[nH]3)[nH]c2c1 | inactive: -3.47% | 
9 | O=C(c1cc(=O)c2ccccc2o1)N1CCCc2ccccc21 | inactive: -13.1% | 
10 | CC(=O)c1c(C)[nH]c(C(=O)Nc2cccc(S(=O)(=O)N(C)c3ccccc3)c2)c1C |  | active: 25.1 µM
11 | c1ccc(COCCN2CCN(CCOCc3ccccc3)CC2)cc1 | inactive: -21.2% | 
12 | CCc1noc(C)c1C(=O)Nc1cc(Cl)ccc1N1CCCC1 |  | inconclusive [inhibitor, full curve]
13 | Cc1cccc(C)c1NC(=O)CN(C)C(=O)C1CCN(c2ncnc3sc(C)c(C)c23)CC1 |  | inconclusive [inhibitor, single point]
14 | CC[C@@]1(O)C(=O)OCc2c1cc1n(c2=O)Cc2cc3c(N)cccc3nc2-1 | inactive: 26.6% | 
15 | CN(Cc1ccc(C(C)(C)C)cc1)C(=O)C1CCN(C(=O)Nc2ccccc2)CC1 |  | inconclusive [inhibitor, single point]
16 | CCOC(=O)[C@@H]1[C@H]2COc3ccccc3[C@@H]2N2C(=O)N(c3ccc(C)cc3)C(=O)[C@@]12C |  | inconclusive [inhibitor, partial curve]
17 | O=C(OCC(=O)N1CCCc2ccccc21)c1c(F)cccc1F |  | inconclusive [inhibitor, single point]
18 | Cc1ccc(NC(=O)CN2C(=O)NC3(CCCc4ccccc43)C2=O)c(Cl)c1 (stereo not given) |  | inconclusive [inhibitor, single point]
19 | CN(Cc1nc(Cc2ccccc2F)no1)Cc1cccc2ncccc12 |  | active: 11.2 µM
20 | CC(Nc1nc(C(F)(F)F)nc2ccccc12)c1cccs1 (stereo not given) |  | active: 10 µM
21 | COc1cc(C(=O)NC(=S)Nc2ccccc2N2CCOCC2)cc(OC)c1OC |  | inconclusive [inhibitor, partial curve]
22 | CN(CCNC(=O)c1c[nH]c2c1ccc1ccccc12)CCNC(=O)c1c[nH]c2c1ccc1ccccc12 |  | inconclusive [inhibitor, single point]

Row | SMILES | activity change, negative = inhibition | Potency
23 | CCOc1cccc(C(=O)Nc2cccc(-c3nnc(-c4ccccc4)o3)c2)c1 |  | inconclusive [inhibitor, partial curve, poor fit]
24 | CSc1ccc(C2Nc3ccccc3-c3cc(C)nn32)cc1 (stereo not given) |  | active: 10 µM
25 | COc1ccccc1NC(=O)C(C)Sc1nc2ccccc2c(=O)n1CC1CCCO1 (stereo not given) |  | inconclusive [inhibitor, single point]
26 | CCOC(=O)C1(CCOc2ccccc2)CCN(CCCn2cccn2)CC1 | inactive: -11.1% | 
27 | CC1CCCCN1S(=O)(=O)c1ccc(N(C(=O)c2cnccn2)C(C(=O)NC2CCCC2)c2cccs2)cc1 (stereo not given) |  | inconclusive [inhibitor, single point]
28 | Cc1ccc(COc2ccc(/C=N/NC(=O)CN3CCCCC3)cc2)cc1 |  | inconclusive [inhibitor, partial curve, poor fit]
29 | O=C(CN1CCN(C(=O)C2CCN(C(=O)/C=C/c3ccccc3)CC2)CC1)Nc1ccccc1Cl |  | inconclusive [inhibitor, single point]
30 | Cc1cccc(NC(=S)N=Nc2c(O)n(C)c3ccc(S(=O)(=O)N4CCOCC4)cc23)c1 |  | active: 1.58 µM
31 | Cc1ccc(S(=O)(=O)N/N=C2/CC(c3ccccc3)Oc3ccccc32)cc1[N+](=O)[O-] (stereo not given) | inactive: 6.78% | 
32 | CCc1ccc(NC(=S)N(Cc2ccccc2)Cc2ccccn2)cc1 |  | inconclusive [inhibitor, single point]
33 | CCOc1ccc(S(=O)(=O)N2CCN(C)CC2)c(C)c1C |  | inconclusive [inhibitor, single point]
34 | CCOC(=O)/C(C#N)=C/c1cn(CCOc2ccc(OC)cc2)c2ccccc12 |  | inconclusive [inhibitor, full curve, poor fit]
35 | Cc1ccc(C(=O)N2CC(=O)Nc3ccc(F)cc3C2c2ccccc2)cc1 (stereo not given) | inactive: -0.242% | 
36 | Cc1cccc(-n2nc([N+](=O)[O-])c(=NC3CCN(Cc4ccccc4)CC3)n2O)c1 |  | active: 8.91 µM
37 | CC(C)OCCCNC(=O)CNC(=O)c1cccs1 |  | inconclusive [inhibitor, single point]
38 | COc1ccc(C2Nc3ccccc3C(=O)N2c2ccccc2)cc1CN1CCOCC1 (stereo not given) |  | inconclusive [inhibitor, single point]
39 | Cc1nc(N2CCN(C)CC2)[nH]c(=O)c1Cc1cccc2ccccc12 |  | inconclusive [inhibitor, single point]
40 | COc1ccccc1CC(=O)Nc1ccc(-c2nnc(-c3ccco3)o2)cc1 |  | inconclusive [inhibitor, single point]
41 | Cc1cccc(NC(=O)c2cnc3sccn3c2=O)c1 | inactive: 15.7% | 
42 | CN(C)C(=S)N=c1ssc(=S)n1Cc1cccnc1 |  | inconclusive [inhibitor, single point]
43 | O=Nc1c(O)n(Cc2ccc(Cl)c(Cl)c2)c2ccccc12 |  | inconclusive [inhibitor, single point]
44 | Fc1cccc(-c2cc3nc4c(c(NCc5ccco5)n3n2)CCCC4)c1 |  | inconclusive [inhibitor, single point]

Row | SMILES | activity change, negative = inhibition | Potency
45 | COc1ccc(-c2cnc(N)nc2-c2ccc(OC)cc2)cc1 |  | inconclusive [inhibitor, single point]
46 | Cc1ccccc1NC(=O)C1Cc2ccccc2CN1C(=O)OCc1ccccc1 (stereo not given) |  | inconclusive [inhibitor, single point]
47 | CCC(C)NC(=O)CSc1ccc(S(=O)(=O)N(C)C2CCCCC2)cn1 (stereo not given) |  | inconclusive [inhibitor, single point]
48 | COc1ccc(CC(NC(C)=O)C(=O)N2CCN(C(=O)Nc3ccc(Cl)cc3)CC2)cc1OC (stereo not given) |  | inconclusive [inhibitor, single point]
49 | C#CCOCCOCCOCCNc1nc(N2CCN(C(=O)CCCCCCCCCCNC(=O)[C@H](CCCCN)n3cc(CCCC(=O)O)nn3)CC2)nc(N2CCN(C(=O)CCCCCCCCCCNC(=O)[C@H](CCCN=C(N)N)n3cc(C[C@@H](C)CC)nn3)CC2)n1 |  | inconclusive [inhibitor, single point]
50 | CCOc1ccc(CNC(=O)C2Cc3cc(S(=O)(=O)N4CCCC4)ccc3N2C(C)=O)cc1 (stereo not given) | inactive: 2.11% | 
51 | COc1ccc(C(=O)Nc2nc3ccccc3[nH]2)cc1S(=O)(=O)N1CCOCC1 | inactive: -8.3% | 
52 | CCOC(=O)C1CCN(CC(=O)c2ccc(O)c(C)c2O)CC1 | inactive: 4.8% | 
53 | CN1/C(=C\C=[N+](C)c2ccccc2)C(C)(C)c2ccccc21 |  | active: 11.2 µM
54 | COc1cc(OC)c2c(-c3cccc(-c4ccc(CO)cc4)c3)cc(=O)oc2c1 |  | inconclusive [inhibitor, single point]
55 | Cc1cccc(Nc2nnc(SCC(=O)Nc3cccnc3Cl)s2)c1 |  | inconclusive [inhibitor, partial curve, poor fit]
56 | CCOC(=O)C(=O)c1c(-c2ccccc2)nc2ccccn12 |  | inconclusive [inhibitor, single point]
57 | C[C@H](O)[C@@H]1C(=O)N2CCc3ccc(N4CCN(C)CC4)cc3[C@@H]2C[C@@H]1N(C)C(=O)Nc1cc(Cl)cc(Cl)c1 |  | inconclusive [inhibitor, partial curve]
58 | O=[N+]([O-])c1ccc(/C=N/N=C/c2ccc([N+](=O)[O-])o2)o1 |  | active: 4.47 µM
59 | CCOC(=O)c1c(NC(=O)CN(CC)CC)sc2c1CCC2 |  | inconclusive [inhibitor, partial curve]
60 | Cc1cc(C)c(C)c(OCCNCc2ccccc2)c1 |  | inconclusive [inhibitor, single point]
61 | CC(CCc1ccccc1)NCC(O)COc1ccccc1 (stereo not given) |  | inconclusive [inhibitor, single point]
62 | Cc1cc(C)c2nc(NC(=O)c3ccc(OCC4CCCO4)cc3)sc2c1 (stereo not given) |  | inconclusive [inhibitor, partial curve]
63 | CN1CCN(NC(=O)c2cc([N+](=O)[O-])cc([N+](=O)[O-])c2)CC1 |  | inconclusive [inhibitor, single point]
64 | COc1cc2ccnc(Cc3cccc(OC)c3OC)c2cc1OC |  | inconclusive [inhibitor, partial curve]
65 | COc1ccccc1NS(=O)(=O)c1cc(NC(=O)COc2ccccc2)ccc1N1CCOCC1 |  | inconclusive [inhibitor, single point]
